Experimental data published in a collection of fitness landscapes (doi:10.1016/j.celrep.2020.107928).
The full ranking holds about 81,000 sequences; the median of “one-hybrid fitness for binding parS DNA” is about -0.17, and the highest 2% start at about 0.51. Some of the results follow.

B1: Caulobacter ParB omega fusion; a variant is named by its letters at X, in order, B8GW30 (parent)
chain: MESVVVGEPGMSEGRRGLGRGLSALLGEVDAAPAQAPGEQLGGSREAPIEILQRNPDQPRRTFREEDLEDLSNSIREKGVLQPILVRPSPDTAGEYQIVAGERAWRAAQRAGLKTVPIMVRELDDLAVLEIGIIENVQRADLNVLEEALSYKVLMEKFERTQENIAQTIGKSXSHVANXMRLLXLPDEVQSYLVSGELTAXHARAIAAAADPVALAKQIIEGGLSVRETEALARKAPNLSAGKSKGGRPPRVKDTDTQALESDLSSVLGLDVSIDHRGSTGTLTITYATLEQLDDLCNRLTRGI

Variants of: B1
Assay: one-hybrid fitness for binding parS DNA (scaled: cognate 1, non-cognate 0); higher = stronger binding
Conditions: with parS DNA site
In short: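 Fitness here means the log change in variant-to-wild-type read ratio between plasmids sequenced before and after selection. That scale was set so cognate equals 1 and non-cognate equals 0. The selection was a bacterial one-hybrid screen of Caulobacter ParB libraries, four specificity codons randomised, in E. coli USO carrying a HIS3 reporter with the site 19 bp from the promoter, grown 48 hours at 37°C on M9-minus-histidine with 0.1 mM IPTG and 5 mM 3-AT.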

Variant	one-hybrid fitness for binding parS DNA
GIYC	≤ 0.2
AFFM	≤ 0.2
IIAV	≤ 0.2
SAEW	≤ 0.2
PMLR	≤ 0.2
QMNL	≤ 0.2
AMLY	≤ 0.2
HPYN	≤ 0.2
KKHM	≤ 0.2
YVIS	≤ 0.2
ESQL	≤ 0.2
VKVM	≤ 0.2
EYEL	≤ 0.2
IPTR	≤ 0.2
KITF	≤ 0.2
SVLA	≤ 0.2
QLFL	≤ 0.2
FFTS	≤ 0.2
SHSL	≤ 0.2
KYKH	≤ 0.2
FSTC	≤ 0.2
YEPG	≤ 0.2
SAHQ	≤ 0.2
HTHS	≤ 0.2
EAVI	≤ 0.2

Variant	one-hybrid fitness for binding parS DNA
RNCH	≤ 0.2
YSKF	≤ 0.2
HRAH	≤ 0.2
NYTA	≤ 0.2
SLMG	≤ 0.2
TICG	≤ 0.2
DVAC	≤ 0.2
DRNF	≤ 0.2
DWQG	≤ 0.2
RRQS	0.649
QIMT	≤ 0.2
HCRT	≤ 0.2
PERS	≤ 0.2
YNNC	≤ 0.2
DTII	≤ 0.2
HNFS	≤ 0.2
SKQA	≤ 0.2
IGHS	≤ 0.2
QCNN	≤ 0.2
WKAK	≤ 0.2
WTGR	≤ 0.2
CYKG	≤ 0.2
NPQT	≤ 0.2
TRWS	≤ 0.2
SYEG	≤ 0.2

Variant	one-hybrid fitness for binding parS DNA
TSSI	≤ 0.2
AEGC	≤ 0.2
LWRY	≤ 0.2
PRSM	≤ 0.2
YECT	≤ 0.2
SIRS	≤ 0.2
CRTR	≤ 0.2
WTRY	≤ 0.2
SRIE	≤ 0.2
RFGN	0.435
NPPL	≤ 0.2
PYGY	≤ 0.2
RCYF	0.316
CNPM	≤ 0.2
RVDK	≤ 0.2
SGYT	≤ 0.2
NHYE	≤ 0.2
KERP	≤ 0.2
AMAG	≤ 0.2
IIFG	≤ 0.2
RQQT	0.895
GHFR	≤ 0.2
TQNS	≤ 0.2
QHRK	≤ 0.2
SQMT	≤ 0.2

Variant	one-hybrid fitness for binding parS DNA
PTEY	≤ 0.2
MRQS	≤ 0.2
WRYC	≤ 0.2
RCMI	≤ 0.2
YARK	≤ 0.2
PLGQ	≤ 0.2
LGEW	≤ 0.2
MTFS	≤ 0.2
PCWR	≤ 0.2
KNGP	≤ 0.2
LTNP	≤ 0.2
EGGM	≤ 0.2
ELER	≤ 0.2
EEWR	≤ 0.2
AGHW	≤ 0.2
PAYQ	≤ 0.2
EYMS	≤ 0.2
VGVR	≤ 0.2
GTKT	≤ 0.2
AICP	≤ 0.2
YCVM	≤ 0.2
MIFI	≤ 0.2
FAFG	≤ 0.2
GSYV	≤ 0.2
VKRR	≤ 0.2

Variant	one-hybrid fitness for binding parS DNA
QKKN	≤ 0.2
EMLS	≤ 0.2
KCAT	≤ 0.2
VHLS	≤ 0.2
KRWA	≤ 0.2
SPFG	≤ 0.2
GMDC	≤ 0.2
LRNW	≤ 0.2
LWFR	≤ 0.2
AHTP	≤ 0.2
LAKP	≤ 0.2
ASER	≤ 0.2
IYIG	≤ 0.2
GGKV	≤ 0.2
DHNK	≤ 0.2
LGAA	≤ 0.2
WPYC	≤ 0.2
RQLT	0.86
EPMS	≤ 0.2
ICGC	0.223
SAKR	≤ 0.2
KKRL	≤ 0.2
QSDF	≤ 0.2
LLED	≤ 0.2
TQRY	≤ 0.2

Variant	one-hybrid fitness for binding parS DNA
GLST	≤ 0.2
GKNR	≤ 0.2
AGLA	≤ 0.2
LWWT	≤ 0.2
PAMS	≤ 0.2
WMVC	≤ 0.2
LTYG	≤ 0.2
FIMG	≤ 0.2
PWWG	≤ 0.2
QWYA	≤ 0.2
RAFK	≤ 0.2
ATMK	≤ 0.2
IYDT	≤ 0.2
RPGG	≤ 0.2
RMMA	0.643
RWAH	≤ 0.2
PTPM	≤ 0.2
LQGT	≤ 0.2
RYCG	0.974
VRDA	≤ 0.2
TLTW	≤ 0.2
CLWC	≤ 0.2
MVTS	≤ 0.2
SQFT	≤ 0.2
QSVS	≤ 0.2

Variant	one-hybrid fitness for binding parS DNA
VGYS	≤ 0.2
YYFR	≤ 0.2
HVTY	≤ 0.2
HQER	≤ 0.2
LNYT	≤ 0.2
RIVC	0.942
DWYR	≤ 0.2
ALNH	≤ 0.2
YENG	≤ 0.2
KRQF	≤ 0.2
HNRI	≤ 0.2
PGIE	≤ 0.2
WYTR	≤ 0.2
SLKR	≤ 0.2
TAQT	≤ 0.2
PVGV	≤ 0.2
FDLQ	≤ 0.2
KKES	≤ 0.2
YYEG	≤ 0.2
QYIT	≤ 0.2
AMNR	≤ 0.2
SLSN	≤ 0.2
KSDC	≤ 0.2
RAKE	≤ 0.2
ETIL	≤ 0.2

Variant	one-hybrid fitness for binding parS DNA
NSMV	≤ 0.2
GVRA	≤ 0.2
CITA	≤ 0.2
YTMT	≤ 0.2
IPRR	≤ 0.2
MLLI	≤ 0.2
LVHF	≤ 0.2
CRSP	≤ 0.2
KSAY	≤ 0.2
SPLA	≤ 0.2
VASF	≤ 0.2
SNML	≤ 0.2
HMSG	≤ 0.2
FPFC	≤ 0.2
HGDK	≤ 0.2
IKWG	≤ 0.2
ILHD	≤ 0.2
GRAA	≤ 0.2
RIQL	≤ 0.2
HEET	≤ 0.2
